In PubChem BioAssay AID1508624 (National Center for Advancing Translational Sciences (NCATS), 2021):
Screen size: about 48,000 compounds; about 120 (0.25%) were called active. Another 4% or so got no clear call; they are omitted. Calls come from the whole dose curve; as a rule, active = well fitted activation curve with a large enough effect; inconclusive = small, poorly fitted or top-dose-only effect, or another doubt; inactive = no such curve, though single readings can be large or run the other way. Some of the results follow.

Assay: Primary qHTS for Identification of Small Molecule Activators of Huntingtin-Antisense Promoter Activity; note: nearly all actives have a fitted effect of over 55% in size
Details: HEK293 HTT-AS promoter firefly luciferase reporter (activity 0% = vehicle and -100% = no light), 24 h; series mostly up to 57.5 µM; activity change, positive = activation: at the top concentration
In short: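 HEK293 Fluc reporter, 2,500 cells/well, 24 h pre-culture; cpds up to 57.5 uM final, 24 h 37 degrees C; Dual-Glo, 10 min RT; normalized vehicle = 0%, zero RLU = -100%.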

Activity change, positive = activation, inactive:
CCOCCCNC(=O)c1ccc(-n2c(-c3ccccc3)cc3c2CCCCC3)cc1 -0.808%, CCC(=O)N1CCc2cc(Br)cc(S(=O)(=O)CCC(=O)Nc3cccc(C)c3C)c21 4.94%, CCCn1cnc2cc(NCc3ccc(OC)cc3OC)ccc21 5.95%, Cc1cc(=O)oc2cc(OCC(=O)Nc3ccc(O)c(C(=O)O)c3)ccc12 -5.87%, Oc1ccc(NCc2ccc(OCc3ccccc3)cc2)cc1 13.7%, CCOc1ccc(CC(=O)N2CCc3cc(OC)c(OC)cc3C2COc2ccc3c(C)cc(=O)oc3c2)cc1 (configuration not stated) 0%, CCOc1ccc(NC(=O)CCc2c(C)nc3cc(-c4ccc(Cl)cc4)nn3c2C)cc1 -79.8%, CC(C)CNS(=O)(=O)c1ccc(N2CCCCS2(=O)=O)cc1 -4.79%, CCCCCn1c(=O)[nH]c2cc(C(=O)NCc3ccccc3)ccc2c1=O -17.2%, Cc1ccc(CNC(=O)CS(=O)(=O)Cc2nc(-c3ccccc3C)oc2C)cc1 -13.5%, CCCOc1ccc(NC(=O)C(=O)NCCCN2CCOCC2)cc1 -57.7%, COc1ccc(CNC(=O)Cc2c(C)c3c(cc(C)c4c(C)c(C)oc43)oc2=O)cc1OC -8.3%, Cc1cccc(Cn2c(SCc3ccc(C(=O)NC4CCCC4)cc3)nc3ccncc32)c1 -20.2%, CCN(CC)S(=O)(=O)c1ccc2c(c1)N(CC(=O)NCCCN1CCN(c3cc(Cl)ccc3C)CC1)C(=O)CO2 -34.4%, Cc1cccc(-c2noc(CNC(=O)c3ccccc3Br)n2)c1 -6.31%, Cc1ccc(NC(=O)c2sc(-n3nc(C)c(Cc4ccc5c(c4)OCO5)c3C)nc2C)cc1Cl -8.88%, CCOC(=O)C1CCC(CN(Cc2ccc(OC)cc2)S(=O)(=O)c2ccc(F)c(C(=O)Nc3c(C)cccc3C)c2)CC1 (configuration not stated) -10.6%, CS(=O)(=O)Nc1ccccc1C(=O)OCc1cc(=O)n2nc(C3CCCCC3)sc2n1 -5.16%, Cc1ccccc1Nc1c(-c2ccccc2)nc2cccc(C)n12 2.7%, Cc1cc(F)ccc1NC(=O)CS(=O)(=O)c1cccc2nsnc12 -5.2%, O=C(Cn1cnc2c(nc3n2CCCCC3)c1=O)Nc1ccc(F)c(Cl)c1 -18.5%, COc1ccc(CNc2nc(SCc3ccccc3Cl)nc3ccccc23)cc1 -26.7%, CSc1ccc(CCNC(=O)c2cc3cc(S(=O)(=O)N4CCCCC4)ccc3n2C)cc1 -37%, CCOC(=O)C(C#N)=C(c1ccccc1)c1ccccc1 -11.2%, COc1ccc(N2CC(NC(=O)C3CCCC3)CC2=O)cc1OC (configuration not stated) -7.41%, CC1CCCN(S(=O)(=O)c2cc3c4c(c2)CC(=O)N4CCC3)C1 (configuration not stated) -17.3%, Cn1nc(C(=O)N2CCN(c3ccc(F)cc3)CC2)c2c1-c1ccccc1SC2 -13.4%
